Data on 36 molecules can be found in PubChem BioAssay (NCI).

Several values for one entry are separate records, joined by “and”; a condition that tells them apart may be missing. Equal entries are not always repeated.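 Dose response: 5 concentrations. Exposure: 48 h. Format: 96-well plates. Endpoint: linear interpolation; highest concentration if not reached. Here, GI50 denotes the concentration required for 50% inhibition of growth. TGI denotes the concentration required for complete inhibition of growth.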

The subject of the test is NCI-H322M lung. The test can be described thus: inhibition of tumour cell growth, NCI panel, 48 h.

`O=Cc1c2c(cc3c1CC1(C3)Cc3cc4c(c(C=O)c3C1)CCC4)CCC2` yielded a TGI of more than 100 µM.
In the case of `Cc1cccc(NC(=S)Nc2cccc(Cl)c2)n1`, the TGI is more than 100 µM.
Same read-out and setting: the same measure for `Nc1ccnc2c1ncn2[C@H]1C[C@H](O)[C@@H](CO)O1`: more than 100 µM.
On the same count and under the same terms, the same measure for `CC(NC1CCCC[C@@H]1O)c1ccccc1` (stereo partly specified): more than 100 µM.
With `CCN(CC)c1ccc(/C=N/N=C(N)N)cc1`, the GI50 was 13.7 µM and the TGI turned out to be 95.7 µM.
Take `Cc1cccc(C=NC23CC4CC(CC(C4)C2)C3)c1`: the TGI was more than 100 µM.
Same read-out and setting: the same measure for `C(=Nc1ccc(-c2nc3ccccc3s2)cc1)c1cccs1`: more than 100 µM; for `C=C(c1ccccc1)c1cc2c(=O)[nH]ccc2n1C`: more than 100 µM.
With `CSCc1ncc(-c2ccc(C(F)(F)F)cc2)c(NC2CCCCCC2)n1`, the GI50 is more than 10 µM and the TGI is more than 10 µM.
For the molecule `CCCCC[C@H]1C/C=C2/C(=O)C=C[C@@H]2C/C=C\CCCC(=O)O1`, the GI50 was 0.564 µM and the TGI turned out to be 4.77 µM.
`C/C(=N\Nc1nc2cc(F)ccc2s1)c1ccccn1` gave a TGI of more than 42.6 µM.
`CCSc1c2ccccc2nc2c(OC)ccc(OC)c12`: the TGI turned out to be 69 µM.
The same measure, in the same setting: the same measure for `Oc1c(NCn2nc(CCCCCCCCc3nn(CNc4ccc5ccccc5c4O)c(=S)o3)oc2=S)ccc2ccccc12`: more than 100 µM; for `CC(C)C(Br)C(=O)NCC(=O)O` (stereo unspecified): more than 100 µM; for `c1ccc(C2N=C(c3ccccn3)C(c3ccccn3)=NC2c2ccccc2)cc1` (stereo unspecified): more than 100 µM.
Same read-out and setting: the same measure for `Cc1ccc(N=Nc2c(O)ccc3ccccc23)c(C)c1`: more than 100 µM.
On to `Cc1nc(C(=O)OCc2ccccc2)cc(OCc2ccccc2)c1C`, for which the GI50 is 34.5 µM and the TGI is more than 100 µM.
Take `Cc1c(-c2ccc(-c3ccccc3F)cc2)nc2ccc(F)cc2c1C(=O)O`: the GI50 is 41.2 µM; the TGI was 220 µM and 478 µM.
Turning to `COc1ccc(C(=O)c2ccccc2)c(O)c1`, the GI50 was more than 100 µM and the TGI was more than 100 µM.
As for `COC(OC)c1cccnc1C`, the TGI was more than 100 µM.
The same measure, in the same setting: the same measure for `O=C(Oc1cncc(Cl)c1)c1cc2ccccc2sc1=O`: more than 100 µM; for `N#Cc1nc(CN2C(=O)c3ccccc3C2=O)oc1N`: more than 100 µM.
Still for that read-out and setting: the same measure for `CN(C)Cc1cc(/C=C/C(=O)c2ccc(Br)cc2)cc(CN(C)C)c1O`: 76 µM; for `COC(=O)c1c(CC(=O)OC(C)C)cc2n(c1=O)Cc1c-2nc2ccccc2c1OC`: more than 100 µM.
As to `CCC1OC2(C)CC(C#N)(C#N)C1(C#N)C(=N)O2` (stereo unspecified), the TGI was more than 100 µM.
As to `C[C@]12CCC3c4ccc(O)cc4CCC3C1CC[C@@H]2NC(=O)/C=C/c1ccc(O)c(O)c1` (stereo partly specified), the GI50 is 18.9 µM and the TGI came out at 54.1 µM.
The molecule `O=c1[nH]c(=S)[nH]c2c1CCCN2` had a TGI of more than 100 µM.
`O=C(OCC1=CC(=O)c2ccccc2C1=O)c1ccccc1`: the GI50 is 8.16 µM and the TGI amounted to 22.6 µM.
In turn, `CC(=O)/C(=N\N=C(N)N)c1ccccc1` came in with a TGI of more than 100 µM.
With `CC(C)(O)c1cc(Nc2cc(Oc3cn(C4CC4)nc3C3CCOCC3)ccn2)ccn1`, the GI50 is more than 100 µM and the TGI was more than 100 µM.
Take `C=CC(C)(C)/C(=C\CO[Si](C(C)C)(C(C)C)C(C)C)C(=O)N(C)c1ccccc1I`: the TGI was determined as 34.9 µM.
Still for that read-out and setting: the same measure for `NCCCNCCSP(=O)(O)O`: more than 750 µM; for `COc1ccc(/C=C/C(=O)c2cc(CN(C)C)c(O)c(CN(C)C)c2)cc1`: more than 100 µM; for `CCOC(=O)NN1C(=O)C(=P(c2ccccc2)(c2ccccc2)c2ccccc2)C(C(=O)OC)=C1C`: more than 100 µM.
On the same count and under the same terms, the same measure for `C[C@@H]1CC2(C[C@@H](C)C3[C@@H](CC4(C)CCCC5C6=CC(O)(CC[C@]34C)OC6=CC(=O)OC5(C)C)O2)OC1=O` (stereo partly specified): more than 100 µM.
As for `CCCCS(=O)(=O)c1cc(Nc2ccc(O)c3c2C(=O)c2ccccc2C3=O)ccc1C`, the GI50 is 1.46 µM and the TGI was more than 100 µM.
